In the antibiotic and cytotoxicity screens of Wong et al. (2023) one finds cytotoxicity call data, which are given here for 31 molecules.

This is one part of the list.

The test system of the assay is HSkMC (human skeletal muscle cells). Briefly: cytotoxicity call (relative viability < 0.9). Conditions: 10 µM.
`C[C@H](CO)N1C[C@H](C)[C@@H](CN(C)Cc2ccc(C(=O)O)cc2)OCc2ccccc2-c2c(n(C)c3ccccc23)C1=O`: the cytotoxicity call was “inactive”. Under `Cc1cc(C)n([C@@H](C)CN)n1` stands “inactive”; under `Cc1cc(C(=O)Nc2cccc3c2O[C@H](CN(C)S(=O)(=O)c2cccs2)[C@H](C)CN([C@H](C)CO)C3=O)n(C)n1`, “inactive”; under `C[C@H](CO)N1C[C@H](C)[C@H](CN(C)C)Oc2ccc(NC(=O)Cc3cn(C)c4ccccc34)cc2CC1=O`, “inactive”. As for `C[C@H](CO)N1C[C@H](C)[C@H](CN(C)C(=O)Nc2cccc3ccccc23)Oc2ncc(-c3cccc(F)c3)cc2C1=O`, the entry is “inactive”; as for `O=C(C[C@@H]1CC[C@@H](NC(=O)CN2CCOCC2)[C@H](CO)O1)NC1CCC1`, “inactive”; as for `C[C@H](CO)N1C[C@H](C)[C@H](CN(C)Cc2ccccc2)Oc2ccc(NC(=O)CCCCCC(=O)Nc3ccccc3N)cc2CC1=O`, “inactive”. Consider `C#CCN1C(=O)C[C@H](O)C1=O`, for which the cytotoxicity call was “inactive”. Under `CC(=O)OCC(CCn1cnc2cnc(N)nc21)COC(C)=O` stands “inactive”; under `COc1ccc(S(=O)(=O)N(C)C[C@H]2Oc3ccc(NC(=O)c4ccncc4)cc3C(=O)N([C@H](C)CO)C[C@H]2C)cc1`, “inactive”.

`O=C(N[C@@H]1CC[C@@H](CCNS(=O)(=O)c2ccccc2)O[C@H]1CO)c1cnccn1`: the cytotoxicity call is “inactive”. Under `CN1C(=O)c2cc(NS(=O)(=O)c3ccc(F)cc3)ccc2OC[C@@H]2O[C@@H](CC(=O)NCC(F)(F)F)CC[C@@H]21` stands “inactive”; under `O=c1nc[nH]c2c1ncn2[C@@H]1O[C@H](CO)[C@@H](O)[C@H]1O`, “inactive”; under `C[C@@H]1CN([C@H](C)CO)C(=O)c2cc(NC(=O)Nc3cccc4ccccc34)ccc2O[C@H]1CN(C)S(=O)(=O)c1ccc(Cl)cc1`, “inactive”. With `C[C@@H]1CCCCO[C@@H](CN(C)C(=O)Cc2ccccc2)[C@H](C)CN([C@@H](C)CO)C(=O)c2cc(NC(=O)NC3CCCCC3)ccc2O1`, the cytotoxicity call is “inactive”. As for `O=C(C[C@@H]1CC[C@@H]2[C@H](COC[C@H](O)CN2S(=O)(=O)c2ccccc2)O1)NCCN1CCCC1`, the entry is “inactive”. Under `Cc1ccc(S(=O)(=O)Nc2cccc3c2O[C@H](CN(C)Cc2ccc(C(F)(F)F)cc2)[C@H](C)CN([C@H](C)CO)C3=O)cc1` stands “inactive”. For `Cc1ccc(S(=O)(=O)N(C)C[C@@H]2OCCCC[C@H](C)Oc3ccc(NC(=O)Nc4c(C)noc4C)cc3C(=O)N([C@@H](C)CO)C[C@@H]2C)cc1`, the cytotoxicity call is “inactive”. Under `COc1ccc2c3c([nH]c2c1)[C@@H](CO)N(C[C@]13CN(CC2CCOCC2)C1)S(=O)(=O)c1cn(cn1)C` stands “inactive”; under `C[C@@H]1CN([C@H](C)CO)S(=O)(=O)c2ccc(-c3cncnc3)cc2O[C@H]1CN(C)C(=O)Cc1cccnc1`, “inactive”; under `C[C@@H]1CCCCO[C@H](CN(C)S(=O)(=O)c2cccs2)[C@H](C)CN([C@@H](C)CO)C(=O)c2cc(NC(=O)C3CCCCC3)ccc2O1`, “inactive”. Take `C[C@@H]1CN([C@H](C)CO)S(=O)(=O)c2ccc(-c3cccc(C#N)c3)cc2O[C@H]1CN(C)C(=O)c1ccncc1`: the cytotoxicity call was “inactive”. With `COc1ccc2cc1Oc1ccc(cc1)C[C@H]1c3c(cc4c(c3Oc3cc5c(cc3OC)CCN(C)[C@@H]5C2)OCO4)CCN1C`, the cytotoxicity call was “inactive”. `COCC(=O)N1C[C@H](C)[C@@H](OC)CN(C)C(=O)c2ccc(NC(=O)Nc3cccc(F)c3)cc2OC[C@H]1C`: the cytotoxicity call was “inactive”. Take `C[C@H](CO)N1C[C@H](C)[C@@H](CN(C)S(=O)(=O)c2ccc(Cl)cc2)OCCCC[C@H](C)Oc2ccc(NC(=O)c3ccccc3)cc2C1=O`: the cytotoxicity call was “inactive”.

`NC(=O)NCC#Cc1ccc2c(c1)[C@]1(C(=O)N2)[C@H](c2ccc(OCCO)cc2)N2[C@H](c3ccccc3)[C@H](c3ccccc3)OC(=O)[C@H]2[C@@H]1C(N)=O`: the cytotoxicity call was “inactive”. As for `C[C@@H]1CCCCO[C@H](CN(C)Cc2ccc(Cl)c(Cl)c2)[C@@H](C)CN([C@H](C)CO)C(=O)c2cc(NC(=O)CCC(F)(F)F)ccc2O1`, the entry is “inactive”. Turning to `Cc1ccc(O)c(CO)n1`, the cytotoxicity call was “inactive”. `COc1ccccc1CNC(=O)C[C@@H]1CC[C@H]2[C@@H](COC[C@H](O)CN2C(=O)Nc2ccc(Cl)cc2)O1`: the cytotoxicity call is “inactive”. As for `C[C@]12C=CC(=O)C=C1CC[C@@H]1[C@@H]2[C@@H](O)C[C@@]2(C)[C@H]1CC[C@]2(O)C(=O)COC(=O)c1ccc(CO[N+](=O)[O-])cc1`, the entry is “inactive”; as for `COc1ccc(S(=O)(=O)Nc2ccc3c(c2)C(=O)N([C@@H](C)CO)C[C@@H](C)[C@@H](CN(C)C(=O)Nc2ccc(F)cc2)OCCCC[C@@H](C)O3)cc1`, “inactive”.
